Source: DBAASP

Columns and labels:
Experiment in all cases: ≥ marks a high value that may be exact or a test limit, other limits are often not marked
Trichoderma viride = test system: Trichoderma viride
Bacillus megaterium = test system: Bacillus megaterium
Aerococcus viridans = test system: Aerococcus viridans
Micrococcus luteus = test system: Micrococcus luteus
Fusarium haematococcum = test system: Fusarium haematococcum
Alternaria brassicicola = test system: Alternaria brassicicola
Neurospora crassa = test system: Neurospora crassa
Botrytis cinerea = test system: Botrytis cinerea
Ascochyta pisi = test system: Ascochyta pisi
Pediococcus acidilactici = test system: Pediococcus acidilactici
Fusarium culmorum = test system: Fusarium culmorum
[1] = test system: Mycobacterium tuberculosis mc2-6230
Streptococcus agalactiae = test system: Streptococcus agalactiae
Streptococcus mutans = test system: Streptococcus mutans
[2] = test system: Streptococcus pneumoniae ATCC 49619
[3] = test system: Staphylococcus aureus ATCC 25923
[4] = test system: Mycobacterium tuberculosis mc2-6020
[5] = test system: Escherichia coli ATCC 25922
[6] = test system: Pseudomonas aeruginosa ATCC 27853
[7] = test system: Bacillus subtilis BGSC 1A1
Streptococcus pyogenes = test system: Streptococcus pyogenes
Klebsiella pneumoniae = test system: Klebsiella pneumoniae
Escherichia coli D31 = test system: Escherichia coli D31
[8] = test system: Pseudomonas aeruginosa PAO1

MIC (Trichoderma viride): 14.1 µM (≈ 30.4 µg/mL)
MIC (Bacillus megaterium): 7.07 µM (≈ 15.2 µg/mL)
MIC (Aerococcus viridans): 3.54 µM (≈ 7.59 µg/mL)
MIC (Micrococcus luteus): 7.07 µM (≈ 15.2 µg/mL)
MIC (Fusarium haematococcum): 7.07 µM (≈ 15.2 µg/mL)
MIC (Alternaria brassicicola): 7.07 µM (≈ 15.2 µg/mL)
MIC (Neurospora crassa): 14.1 µM (≈ 30.4 µg/mL)
MIC (Botrytis cinerea): 7.07 µM (≈ 15.2 µg/mL)
MIC (Ascochyta pisi): 28.3 µM (≈ 60.7 µg/mL)
MIC (Pediococcus acidilactici): 28.3 µM (≈ 60.7 µg/mL)
MIC (Fusarium culmorum): 14.1 µM (≈ 30.4 µg/mL)
SMILES: CC[C@H](C)[C@H](NC(=O)[C@@H](NC(=O)[C@@H]1CCCN1C(=O)[C@@H](NC(=O)[C@@H]1CCCN1C(=O)[C@H](CCCCN)NC(=O)[C@H](CCCCN)NC(=O)[C@H](CO)NC(=O)CN)C(C)C)[C@@H](C)CC)C(=O)N[C@@H](Cc1ccc(O)cc1)C(=O)N[C@H]1CSSC[C@@H](C(=O)N[C@@H](CCC(N)=O)C(=O)O)NC(=O)[C@H](CCCCN)NC(=O)CNC(=O)[C@H]([C@@H](C)O)NC(=O)[C@H](CCCN=C(N)N)NC(=O)[C@H](CCCN=C(N)N)NC(=O)[C@H](CC(N)=O)NC1=O [GSKKPVPIIYCNRRTGKCQ]

MIC [1]: ≥ 32 µM
MIC (Streptococcus agalactiae): 8 µM (≈ 15.1 µg/mL)
MIC (Streptococcus mutans): 8 µM (≈ 15.1 µg/mL)
MIC [2]: ≥ 32 µM
MIC [3]: 68 µM (≈ 128 µg/mL)
MIC [4]: 8 µM (≈ 15.1 µg/mL)
MIC [5]: 16 µM (≈ 30.2 µg/mL)
MIC [6]: 32 µM (≈ 60.4 µg/mL)
MIC [7]: 4 µM (≈ 7.55 µg/mL)
MIC (Streptococcus pyogenes): 4 µM (≈ 7.55 µg/mL)
MIC (Klebsiella pneumoniae): 68 µM (≈ 128 µg/mL)
SMILES: CC[C@H](C)[C@H](N)C(=O)N[C@@H](CC(C)C)C(=O)N[C@@H](CO)C(=O)N[C@@H](CC(C)C)C(=O)N[C@@H](CCCN=C(N)N)C(=O)N[C@@H](Cc1c[nH]c2ccccc12)C(=O)N[C@@H](CCCN=C(N)N)C(=O)N[C@@H](Cc1c[nH]c2ccccc12)C(=O)N[C@@H](CCCCN)C(=O)N[C@@H](Cc1c[nH]c2ccccc12)C(=O)N[C@@H](Cc1c[nH]c2ccccc12)C(=O)N[C@@H](CCCCN)C(=O)N[C@@H](CCCCN)C(=O)O [ILSLRWRWKWWKK]

MIC (Escherichia coli D31): 3.46 µM (≈ 16 µg/mL)
MIC [8]: 1.73 µM (≈ 7.99 µg/mL)
SMILES: CC[C@H](C)[C@@H]1NC(=O)[C@@H]2CSSC[C@@H](C(=O)N[C@@H](CCCCN)C(=O)N[C@@H](CCCN=C(N)N)C(=O)N[C@@H](CCCCN)C(=O)O)NC(=O)[C@@H]3CSSC[C@H](NC(=O)[C@H](CO)NC(=O)[C@@H](NC(=O)[C@@H]4CCCN4C(=O)[C@H](CC(N)=O)NC(=O)[C@H](CC(N)=O)NC(=O)[C@@H](NC(=O)[C@H](CCCCN)NC(=O)[C@@H](N)CCCCN)[C@@H](C)CC)C(C)C)C(=O)N[C@@H](CC(C)C)C(=O)N[C@@H](CCCN=C(N)N)C(=O)N[C@@H](CCCCN)C(=O)NCC(=O)NCC(=O)N[C@@H](CCCN=C(N)N)C(=O)N[C@@H](CSSC[C@H](NC(=O)[C@H](CO)NC(=O)CNC(=O)[C@H]([C@@H](C)CC)NC(=O)[C@H](CCC(N)=O)NC(=O)[C@H](CCCN=C(N)N)NC(=O)[C@H]([C@@H](C)O)NC(=O)[C@H](CC(N)=O)NC(=O)CNC1=O)C(=O)NCC(=O)N[C@@H](C(C)C)C(=O)N1CCC[C@H]1C(=O)N[C@@H](Cc1ccccc1)C(=O)N[C@@H](CC(C)C)C(=O)N[C@@H](CCCCN)C(=O)N3)C(=O)N[C@@H](Cc1c[nH]c3ccccc13)C(=O)N[C@@H](CC(N)=O)C(=O)N[C@@H](CCCN=C(N)N)C(=O)N2 [KKINNPVSCLRKGGRCWNRCIGNTRQIGSCGVPFLKCCKRK]

Values after ≈ are worked out from the molar mass of the structure shown. One block for each compound: values may come before it.
